Results: PubChem BioAssay AID1645887 (National Center for Advancing Translational Sciences (NCATS), 2021)
Where “and” joins values, the source holds several entries; their conditions need not be identical. Equal entries are not always repeated. Out of some 16,000 compounds screened, about 40 (0.2%) were called active. Roughly 1% stayed inconclusive and do not appear here. Calls come from the whole dose curve; as a rule, active = well fitted activation curve with a large enough effect; inconclusive = small, poorly fitted or top-dose-only effect, or another doubt; inactive = no such curve, though single readings can be large or run the other way. Some of the results follow. Residues, ends and D or L forms follow the SMILES beside them. *: point of attachment. Boc = CC(C)(C)OC(=O)*

Target: Rap guanine nucleotide exchange factor 4 (Homo sapiens) (UniProt Q8WZA2)
Sequence of UniProt Q8WZA2 (Q8WZA2 whole entry, looked up): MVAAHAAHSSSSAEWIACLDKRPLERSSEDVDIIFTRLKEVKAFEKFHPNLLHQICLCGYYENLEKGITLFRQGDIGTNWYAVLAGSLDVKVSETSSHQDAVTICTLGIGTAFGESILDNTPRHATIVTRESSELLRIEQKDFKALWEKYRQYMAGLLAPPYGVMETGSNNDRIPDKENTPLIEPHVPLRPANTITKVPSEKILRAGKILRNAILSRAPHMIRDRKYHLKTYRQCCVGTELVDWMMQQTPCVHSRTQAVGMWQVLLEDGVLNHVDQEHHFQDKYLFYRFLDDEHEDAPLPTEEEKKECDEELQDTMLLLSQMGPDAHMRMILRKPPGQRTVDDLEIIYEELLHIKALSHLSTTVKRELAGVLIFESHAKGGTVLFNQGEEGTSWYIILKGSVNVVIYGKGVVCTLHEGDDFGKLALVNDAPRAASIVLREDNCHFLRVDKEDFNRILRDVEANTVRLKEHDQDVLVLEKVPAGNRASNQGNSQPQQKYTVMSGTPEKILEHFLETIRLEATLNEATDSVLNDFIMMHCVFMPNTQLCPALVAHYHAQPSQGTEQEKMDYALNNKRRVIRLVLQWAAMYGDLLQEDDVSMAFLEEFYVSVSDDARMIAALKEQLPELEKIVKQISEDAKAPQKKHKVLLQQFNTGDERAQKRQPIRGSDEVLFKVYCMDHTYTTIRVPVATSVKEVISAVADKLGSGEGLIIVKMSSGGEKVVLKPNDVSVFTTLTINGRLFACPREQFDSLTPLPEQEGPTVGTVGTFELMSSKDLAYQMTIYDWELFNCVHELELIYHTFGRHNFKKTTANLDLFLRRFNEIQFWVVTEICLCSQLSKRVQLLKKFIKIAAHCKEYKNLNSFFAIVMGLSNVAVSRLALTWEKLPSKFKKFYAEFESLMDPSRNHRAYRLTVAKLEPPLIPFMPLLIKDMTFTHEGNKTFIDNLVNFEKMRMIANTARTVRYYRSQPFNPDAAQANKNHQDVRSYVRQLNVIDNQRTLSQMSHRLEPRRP
Experiment: Validation qHTS for agonist of cAMP-regulated guanine nucleotide exchange factor 4 (EPAC2);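 note: exchange makes BODIPY-GDP fluorescence drop when released from Rap1B; series mostly up to about 150 µM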
Conditions: EPAC2 Rap1B BODIPY-GDP exchange, fluorescence; activation: active compounds read high
Method in brief: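 Signal normalized against 6.5 mM cAMP as agonist control. Mix of EPAC2 (100 nM), RAP1B-BODIPY-GDP (250 nM) and GDP (50 uM) was read kinetically at 480/540 nm, every 5 min over 30 min, after 5 min room-temperature incubation with compound.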
% is set by controls: 0 for no effect and ±100 for the full control effect.

activation, inactive:
Cc1c(C(=O)N(C)Cc2cccc3ncccc23)cnn1-c1nccc(-c2ccccc2F)n1 -4.6%
CC(=O)c1ccccc1-c1ccc2c(c1)CC(CNC(=O)C[C@@H]1C[C@@H](C)NC(=S)N1)O2 (stereo partly drawn) 4.55%
N[C@H](C(=O)O)[C@@H]1[C@@H](C(=O)O)C1(F)F -9.67% and 11.5%
CCCN(C/C=C/I)C1CCc2cccc(O)c2C1 (stereo not drawn) -6.44%
FC(F)(F)c1ccccc1-c1ccc2ncnc(N3CCOCC3)c2c1 -24.3%
COc1cccc(Cn2c(=O)c(C)nc3cnc(Nc4ccccc4)nc32)c1 -3.42%
CC(C)CC(=O)N1C/C=C\C[C@@H](c2ccc(Cl)cc2)N(Cc2ccc(Cl)cc2)C(=O)[C@@H]1Cc1ccccc1 -30.2%
CCNc1ncc2ncc(=O)n(C)c2n1 -8.51%
Cc1ccc(S(=O)(=O)NC(=O)N[C@@H](C)Cc2ccccc2)cc1 -8.11%
Nc1cc(Cl)c(NC2=NCCN2)c(Cl)c1 5.46% and 6.4%
C[C@@]12CCC[C@H]1[C@@H]1CC[C@H]3C[C@@H](O)CC[C@]3(C)[C@H]1CC2 -20.4%
Cc1ccccc1-c1nc(Nc2ccncc2)c2ccccc2n1 -32.7%
CCC1CN(CCC(=O)N2CCCN(C(=O)c3ccco3)CC2)Cc2cc(OC)ccc2O1 (stereo not drawn) -13.9%
COc1ccc2c(c1)CCC1C2CC[C@@]2(C)C(O)CCC12 (stereo partly drawn) -2.91%
CC(C)OC(=O)OCOP(=O)(CO[C@H](C)Cn1cnc2c(N)ncnc21)OCOC(=O)OC(C)C 0.775%
CN1CCC(OC(=O)C(Oc2ccc(Cl)cc2)Oc2ccc(Cl)cc2)CC1 -28.6%
CN(C)C(=O)/N=N/C(=O)N(C)C -24.2%
CNC(=O)Oc1ccc2c(c1)C1(C)CCN(C)C1N2C (stereo not drawn) 1.23%
C=C1C[C@@]23CC[C@H]4[C@@](C)(CCC[C@@]4(C)C(=O)OC4OC(CO)C(O)C(O)C4O)[C@@H]2CC[C@]1(OC1OC(CO)C(O)C(O)C1OC1OC(CO)C(O)C(O)C1O)C3 (stereo partly drawn) -3.46%
FC(F)(F)c1cccc(-c2cn[nH]c2C2CCCN(Cc3cccn3-c3ccccn3)C2)c1 (stereo not drawn) -5.25%
COc1cccc(C(=O)CC2c3c(c(Br)c4c(c3OC)OCO4)CCN2C)c1 (stereo not drawn) -0.832%
c1cc2cc(-c3c(-c4ccc5c(c4)OCO5)noc3-c3ccsc3)ccc2[nH]1 0.357%
Cn1cnc([N+](=O)[O-])c1Sc1ncnc2nc[nH]c12 -9.01% [middle of 4 runs]
O=C(c1ccco1)N1CCC[C@@]2(CCN(c3ncccn3)C2)C1 -7.48%
COc1ccc(C(=O)N2CCC[C@@]3(CCN(C(=O)NC(C)C)C3)C2)cc1 3.97%
CSc1nc(C(=O)NCc2nc(-c3cccc(NC(=O)c4ccc(C)s4)c3)oc2C)cs1 -8.51%
CC(CCCCC(=O)Nc1ccc(C(F)(F)F)cc1)NCCc1cnc[nH]1 (stereo not drawn) 9.69%
c1nc(NCCN2CCOCC2)c2cc(-c3ccoc3)ccc2n1 -7.45%
Cc1ccc(C)c(C(=O)N2CCC(C3(c4ccccn4)NC(=O)N(CC4CCCO4)C3=O)CC2)c1 (stereo not drawn) 0.355%
CS(=O)(=O)N1CCC2(CCN(c3ccccc3)CC2)CC1 -16.4%
ClC(Cl)Cl -3.62%
CC[C@@H]1[C@H]2CCCC(=O)N3CC[C@@H](C[C@@H]1OC(=O)Nc1ccccc1)[C@@H]23 -32.6%
Cc1ncc(C[n+]2csc(CCOP(=O)(O)OP(=O)(O)O)c2C)c(N)n1 -22.6%
Cn1c(=O)c(-c2ccccc2)nc2cnc(N3CCOCC3)nc21 4.52%
CC[C@H](CO)Nc1nc(NCc2ccccc2)c2ncn(C(C)C)c2n1 -7% and -9.11%
Cc1ccc(C(=O)Nc2cccc(-c3nc(CNC(=O)c4cccc(N(C)C)c4)c(C)o3)c2)s1 -7.22%
O=P(O)(O)OC(Cn1cncn1)(Cn1cncn1)c1ccc(F)cc1F -0.561%
CC(=O)OC(C)OC(=O)C(C)c1ccc(-c2ccccc2)c(F)c1 (stereo not drawn) -10.8% and -27.4%
O=C(N/N=C\c1ccccc1O)c1ccccc1O -25.6%
CN(C)C(=O)c1ccc(-c2nccc(NCc3cccs3)n2)cc1 3.93%
COc1ncc2nc(-c3ccccc3)c(=O)n(C3CC3)c2n1 -15.9%
CCN1CCCC1CNC(=O)c1cnn(-c2nccc(-c3ccc(C)o3)n2)c1C1CC1 (stereo not drawn) -8.9%
CS(=O)(=O)Nc1cccc(-c2nc(NCc3ccccc3)c3ccccc3n2)c1 2.87%
COCc1c(C(=O)N2CCN(C3CCCC3)CC2)cnn1-c1ncc2c(n1)-c1ccccc1CCC2 -5.9%
C[C@@H]1NC(=O)OC1c1ccco1 (stereo partly drawn) -4.61%
O=C(O)c1ccccc1C(=O)Nc1ccc(S(=O)(=O)Nc2nccs2)cc1 7.03%
CS(=O)(=O)N1CCC2(CCCN(Cc3ccccc3)C2)CC1 -5.39%
CC(C)[C@H](NC(=O)CNC(=O)OC(C)(C)C)C(=O)N[C@H](C=O)C(C)C (Boc-Gly-Val-Val-aldehyde) 0.769%
O=C(c1ccncc1)N1CCC[C@@]2(CCN(c3ccccc3)C2)C1 -15.3%
CN(c1nccc(=O)[nH]1)C1CCN(c2nc3ccccc3n2Cc2ccc(F)cc2)CC1 2.01%
Cc1cnc(-n2ncc(C(=O)NCc3ccncc3)c2-c2cccs2)nc1-c1ccc(F)cc1 -1.42%
CC(C)=CCCC(C)C1CC[C@@]2(C)C3=C(CC[C@@]12C)C1(C)CCC(O)C(C)(C)C1CC3 (stereo partly drawn) 0.897%
COc1cc(C=C2CCC/C(=C\c3ccc(O)c(OC)c3)C2=O)ccc1O 2.37%
